Assay results taken from patent US20260167677A1, “ANTI-ADAM10 ANTIBODIES AND USES IN TREATMENT OF CANCER” (Memorial Sloan Kettering Cancer Center, priority 2022, published 2026).

Assays:
bovine ADAM10 ECD = biological target: T1, bovine ADAM10 ECD (Bos taurus, UniProt Q10741); assay: Fluorogenic peptide cleavage assay, bovine ADAM10 ECD; type: biochemical; settings: 1:1 molar ratio
T1 construct: Bovine ADAM10 ECD (20-646); Fc-tag (C, cleaved yes); made in house; host or cells: HEK293 cells
T1 sequence (Q10741 20-646): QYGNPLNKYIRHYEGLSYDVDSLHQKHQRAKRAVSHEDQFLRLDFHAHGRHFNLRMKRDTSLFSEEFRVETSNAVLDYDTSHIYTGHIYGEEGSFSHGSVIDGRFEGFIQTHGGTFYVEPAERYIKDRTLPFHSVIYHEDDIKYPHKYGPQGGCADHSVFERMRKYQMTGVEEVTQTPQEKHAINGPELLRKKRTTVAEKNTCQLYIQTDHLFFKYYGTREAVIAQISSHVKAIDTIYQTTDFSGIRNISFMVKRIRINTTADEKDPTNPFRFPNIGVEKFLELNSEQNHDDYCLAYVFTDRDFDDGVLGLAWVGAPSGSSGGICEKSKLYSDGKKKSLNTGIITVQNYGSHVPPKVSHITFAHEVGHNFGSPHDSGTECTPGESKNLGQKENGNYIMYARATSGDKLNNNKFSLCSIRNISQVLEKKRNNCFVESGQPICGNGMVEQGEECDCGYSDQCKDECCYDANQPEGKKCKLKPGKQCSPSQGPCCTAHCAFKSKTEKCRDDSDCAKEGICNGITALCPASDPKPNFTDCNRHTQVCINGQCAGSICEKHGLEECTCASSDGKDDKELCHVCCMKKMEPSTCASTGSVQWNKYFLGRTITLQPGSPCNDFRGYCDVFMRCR
Description: ADAM10 ECD-antibody or ADAM10 ECD-inhibitor (broad spectrum metalloprotease inhibitor GM6001) complexes were formed at a 1:1 molar ratio prior to the assay. The assay was carried out by mixing 50 μM of a fluorogenic peptide substrate Mca-PLAQAV-Dpa with ADAM10-antibody/inhibitor complexes at 37° C., and monitoring the progress of the enzymatic reaction by fluorescence emission (excitation 320 nm and emission 405 nm) over a time course of 1 hour using a SpectraMax M5. ADAM10 ECD (bovine or human) alone was used as positive control. The substrate peptide was derived from TNFalpha and contains a highly fluorescent 7-methoxycoumarin group and a quencher group, 2,4-dinitrophenyl. ADAM10 cleaves the amide bond between the fluorescent and the quencher group causing an increase in fluorescence (Seegar et al., 2017; Black & Becherer, 1998).

[1] = biological target: T2, ADAM10 expressed on the cell surface of colon cancer cell lines LIM1215 and COLO205 (Homo sapiens, UniProt O14672); assay: Cell-based ELISA, binding relative to mAb1427; settings: vs ADAM10 endogenously expressed or overexpressed on HEK293
T2 construct: ADAM10 expressed on the cell surface of colon cancer cell lines LIM1215 and COLO205; endogenous in cells; host or cells: LIM1215 and COLO205 cells, paraformaldehyde-fixed
T2 sequence (O14672 214-748): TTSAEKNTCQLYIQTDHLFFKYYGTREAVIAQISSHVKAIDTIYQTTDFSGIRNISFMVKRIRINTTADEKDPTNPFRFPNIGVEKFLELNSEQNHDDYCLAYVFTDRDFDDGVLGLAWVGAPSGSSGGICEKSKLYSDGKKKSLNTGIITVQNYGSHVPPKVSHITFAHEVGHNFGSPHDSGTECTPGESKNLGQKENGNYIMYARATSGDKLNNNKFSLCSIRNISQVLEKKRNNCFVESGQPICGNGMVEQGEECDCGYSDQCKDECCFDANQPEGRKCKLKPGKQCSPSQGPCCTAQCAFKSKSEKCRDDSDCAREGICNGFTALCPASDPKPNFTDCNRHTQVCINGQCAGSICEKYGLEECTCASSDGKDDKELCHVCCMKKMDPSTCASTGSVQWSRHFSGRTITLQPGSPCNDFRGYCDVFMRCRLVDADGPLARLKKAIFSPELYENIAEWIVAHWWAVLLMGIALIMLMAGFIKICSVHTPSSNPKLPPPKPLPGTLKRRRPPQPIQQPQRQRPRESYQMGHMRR
From the text: COLO205, as well as HEK293 cells and HEK293 cells transfected with human ADAM10, as described in Example 6. […] Specifically, on the Y axes is plotted the value of:
The data represent triplicate determinations and two independent experiments, mean±SEM; P<0.001 by unpaired two-tailed Student's t-test (cancer cell lines vs HEK293 cells).
The mAb1427 was shown previously to not be conformation specific (Atapattu et al., 2012; Atapattu et al., 2016).
Briefly, 5×10^4 cells/well were immobilized on 96-well ELISA plates (Greiner bio-one) with 1% paraformaldehyde for 2 hours at 37° C. The plate was washed thrice with PBS and blocked for 2 hours at room temperature with 4% non-fat dry milk. The anti-ADAM10 mAbs were added in varying concentrations. […] For the commercial mAb1427 recognizing human ADAM10, goat anti-mouse IgG (H+L) secondary antibody conjugated to HRP was used. The data was recorded at 450 nm.

human APP = assay: Western blot of APP shedding in U2OS cells transfected with human APP; type: cell-based; settings: 31 nM to 1 μM
Description: U2OS cells transiently transfected with human APP releases the extracellular portion of APP to the media.
The release of sAPPα in the presence of varying concentrations of IHigG/Fab (31 nM to 1 μM) was evaluated using Western blotting. The Western blots were quantitated using the software Image J and glyceraldehyde 3-phosphate dehydrogenase (GAPDH) as loading control. A vector control was included and U20S cells transfected with APP, but untreated, was used to calculate the fold increase in shedding.

LIM1215 = assay: Alamar blue cell viability assay, LIM1215; type: cell-based, human; settings: LIM1215, 20 μg/ml
Description: For the Alamar blue cell viability assays, the cells were harvested in the log phase of growth (after 3 days of culturing). The cell count was determined and was adjusted to 5×10^4 cells/ml. […] The cells were allowed to grow for an additional 38 hours. Cells not treated with 1H5 were used as a control. Alamar Blue (10% of the well volume) was added aseptically. Cultures containing Alamar Blue were incubated for 6 hours, and cell proliferation was measured spectrophotometrically by absorbance at 570 and 600 nm. Cell viability was calculated using the following formula:
O1=molar extinction coefficient (E) of oxidized alamarBlue® (Blue) at 570 nm, O2=E of oxidized alamarBlue® at 600 nm, A1=absorbance of test wells at 570 nm, A2=absorbance of test wells at 600 nm, P1=absorbance of positive growth control well (cells plus AamarBlue® but no test agent) at 570 nm, P2=absorbance of positive growth control well (cells plus AlamarBlue® but no test agent) at 600 nm (O'Brien et al., 2000).

B1: 1H5: fully human anti-ADAM10 antibody clone; heavy chain SEQ ID NO: 14, light chain SEQ ID NO: 15 (antibody)
heavy: QVQLVESGGGLVKPGGSLRLSCAASGFTFSDYYMSWIRQAPGKGLEWVSYISSSGSTIYYADSVKGRFTISRDNAKNSLYLQMNSLRAEDTAVYYCARDFYDSKIFDYWGQGTLVTVSS[human IgG1 constant region left out]
light: DIQMTQSPSSLSASVGDRVTITCRASQSISSYLNWYQQKPGKAPKLLIYAASSLQSGVPSRFSGSGSGTDFTLTISSLQPEDVGVYYCMEGLKTPFTFGPGTKLEIKRTVAAPSVFIFPPSDEQLKSGTASVVCLLNNFYPREAKVQWKVDNALQSGNSQESVTEQDSKDSTYSLSSTLTLSKADYEKHKVYACEVTHQGLSSPVTKSFNRGEC
Q: For B1, which ADAM10 enzymatic activity (bovine ADAM10 ECD) is on record?
A: Its ADAM10 enzymatic activity is “promoted the ADAM10 enzymatic activity”.

Q: And the “binding to ADAM10 on human colon cancer cell lines compared to HEK293 cells” value [1]?
A: The value was “preferentially binds”.

Q: And the sAPPα shedding (human APP)?
A: The sAPPα shedding was “increase”.

Q: And the inhibition (LIM1215)?
A: Its inhibition is 60-70%.
